# The whole screen tested about 310,000 compounds, of which about 14,000 (4.5%) showed an effect of 50% or more. The effect is printed as a negative number. This is one part of the list.
# Target: human ether-à-go-go-related gene (hERG) potassium channel (human, UniProt Q12809)
# Test: primary screen, population patch clamp on CHO cells stably expressing hERG
# 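Also: peak tail current of the secondary pulse compared with the same well before compound.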
# Sequence of human ether-à-go-go-related gene (hERG) potassium channel (Q12809 whole entry, looked up): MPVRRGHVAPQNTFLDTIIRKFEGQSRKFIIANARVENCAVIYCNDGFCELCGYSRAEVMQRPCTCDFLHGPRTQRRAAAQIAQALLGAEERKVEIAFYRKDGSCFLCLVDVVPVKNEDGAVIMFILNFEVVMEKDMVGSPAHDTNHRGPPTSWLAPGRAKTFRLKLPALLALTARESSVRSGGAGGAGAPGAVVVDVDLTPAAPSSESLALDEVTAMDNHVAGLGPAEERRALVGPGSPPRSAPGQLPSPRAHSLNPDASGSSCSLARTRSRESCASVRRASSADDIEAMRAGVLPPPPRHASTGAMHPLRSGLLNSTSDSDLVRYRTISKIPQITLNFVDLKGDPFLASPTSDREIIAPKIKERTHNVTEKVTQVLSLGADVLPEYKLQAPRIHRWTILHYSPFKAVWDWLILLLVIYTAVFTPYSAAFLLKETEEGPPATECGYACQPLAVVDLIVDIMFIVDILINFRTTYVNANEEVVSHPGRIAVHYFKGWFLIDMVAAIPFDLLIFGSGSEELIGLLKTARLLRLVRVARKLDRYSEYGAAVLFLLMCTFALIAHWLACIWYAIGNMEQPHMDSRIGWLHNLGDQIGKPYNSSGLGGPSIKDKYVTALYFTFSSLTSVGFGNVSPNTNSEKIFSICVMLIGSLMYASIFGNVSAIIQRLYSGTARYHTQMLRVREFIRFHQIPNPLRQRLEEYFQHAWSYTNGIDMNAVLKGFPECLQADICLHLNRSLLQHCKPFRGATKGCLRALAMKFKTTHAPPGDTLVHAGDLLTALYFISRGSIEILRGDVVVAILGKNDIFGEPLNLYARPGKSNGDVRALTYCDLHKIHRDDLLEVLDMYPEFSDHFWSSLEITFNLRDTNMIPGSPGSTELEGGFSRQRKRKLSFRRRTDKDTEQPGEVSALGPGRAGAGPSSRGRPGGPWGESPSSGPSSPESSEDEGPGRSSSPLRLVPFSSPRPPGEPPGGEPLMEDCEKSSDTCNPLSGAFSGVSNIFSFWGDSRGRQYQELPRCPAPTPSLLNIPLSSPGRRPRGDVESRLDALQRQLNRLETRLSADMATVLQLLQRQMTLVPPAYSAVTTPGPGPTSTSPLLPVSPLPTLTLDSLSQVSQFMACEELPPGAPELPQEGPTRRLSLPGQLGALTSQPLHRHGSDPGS
row,Structure (SMILES),"hERG current change (%, negative = inhibition) at 10uM"
1,CCCC[C@@H]1CNC(=O)C(=O)N1CCCc1cc(OC)c(OC)c(OC)c1,21.5%
2,c1ccc(-c2cnnc(-c3ccccn3)n2)cc1,-0.697%
3,COc1ccc(NC(=O)CCN2CCC(C)CC2)cc1,3.31%
4,COCC(=O)N(Cc1cc2cc(C)ccc2[nH]c1=O)c1cccc(C)c1C,12.4%
5,Cc1ccc(CCN2CCN=C2N(C)C)cc1,-9.28%
6,COCC(C)NC(=S)NCCc1ccc(Cl)cc1Cl (stereo not drawn),-5.65%
7,Cc1nnc(SCC(=O)NC2CCCC2)n1CCc1ccccc1,-34.1%
8,Cc1ccc(S(=O)(=O)N2CCN(S(=O)(=O)c3ccc4c(c3)OCCO4)CC2)cc1,8.43%
9,O=Cc1cn(-c2ccccc2)nc1-c1ccc(F)cc1,2.99%
10,Cc1ccc2oc(=O)n(CCC(=O)Nc3ccc(N4CCOCC4)cc3)c2c1,3.65%
11,O=C(Nc1ccc(C(F)(F)F)cc1-c1ccccc1)c1ccccc1,4.22%
12,NNC(=O)C(=O)/C=C1\NC2(CCCC2)Cc2ccccc21,-1.65%
13,CCc1ccc(Nc2nc(N)nc(CSc3nnnn3-c3ccccc3)n2)cc1,18.8%
14,COCCNC(=O)CSc1nc(-c2ccc(OC)c(OC)c2)cc(C(F)(F)F)n1,0.324%
15,Cc1cccc(NC(=O)N2CCC(NC(=O)c3ccco3)CC2)c1,0.0645%
16,O=S(=O)(Nc1ccc(F)cc1)N1CCOCC1,17.9%
17,O=C(NCc1cccnc1)C1CCC(CNS(=O)(=O)c2ccc(Cl)cc2)CC1 (stereo not drawn),-21.9%
18,CN(CC(=O)Nc1cccc(F)c1)C(=O)c1ccccc1Cc1ccccc1,4.55%
19,COC(=O)c1ccc(Oc2cc(C)nc(-n3nc(C)cc3C)n2)cc1,-22.4%
20,Cc1nc2ccccc2n1/C(=N/S(=O)(=O)c1ccc(Br)cc1)c1ccccc1,15.9%
21,CCOC(=O)N1CCN(c2c(NCCc3ccc(C)cc3)c(=O)c2=O)CC1,2.15%
22,O=C(Nc1ccccc1)N1N=C(c2cccs2)CC1c1cccs1 (stereo not drawn),-47.4%

row,Structure (SMILES),"hERG current change (%, negative = inhibition) at 10uM"
1,Cc1oc(-c2cccc(Cl)c2)nc1CN1CCC(C(=O)NCCCN2CC(C)CC(C)C2)CC1 (stereo not drawn),-21.4%
2,Cc1ccccc1C(=O)NNC(=O)CSc1nnc(-c2ccncc2)n1-c1ccccc1,0.612%
3,Cc1ccc(NC(=O)Cn2nnc(-c3ccccc3-n3cnnn3)n2)c(C)c1,-4.12%
4,O=C(CCC(=O)N(CC(=O)NC1CCCC1)Cc1ccc(F)cc1)Nc1nccs1,-13.6%
5,CC1CCN(CCCn2c(=S)[nH]c3c(sc4ccc([N+](=O)[O-])cc43)c2=O)CC1.Cl,7.17%
6,CCCCN(C)CCNC(=O)CN1C(=O)CSc2ccc(S(=O)(=O)N3CCCCC3)cc21,-50.6%
7,N#C/C(=C\c1ccncc1)C(=O)Nc1ccc(C(=O)O)cc1,10.6%
8,COc1ccc(NC(=O)COc2cccc(-n3cnnn3)c2)cc1,-54.3%
9,COc1cccc(C(=O)O/N=C(\C)c2cnccn2)c1,-4.55%
10,C=CCSc1nc(C)c(CC(=C)C)c(=O)[nH]1,19.4%
11,COCCn1c(SCC(=O)Nc2ccc(OC)cc2)nnc1-c1ccoc1C,-3.58%
12,COc1ccc(-c2cccc(NS(=O)(=O)c3ccc([N+](=O)[O-])cc3)c2)nn1,-15.2%
13,CCC/C(O)=C1\C(=O)CCCC1=NCCc1c(C)[nH]c2ccccc12,-17.7%
14,Cc1ccc(C2CC(=O)c3cnc(N4CCc5ccccc5C4)nc3C2)cc1 (stereo not drawn),2.58%
15,COCn1cnc(-c2ccccc2)c1-c1ccccc1,-3.24%
16,Cc1ccc(C)c(S(=O)(=O)N2CCCC2CNC(=O)C(=O)NCCc2ccco2)c1 (stereo not drawn),-21.2%
17,CCCC(C(=O)NCc1ccc(OC)cc1)N(Cc1ccco1)C(=O)c1snc(C(N)=O)c1N (stereo not drawn),-41.1%
18,COC(=O)c1ccc(N2C(=O)CC(N(C)CCc3ccc(OC)c(OC)c3)C2=O)cc1 (stereo not drawn),11%
19,Cc1ccccc1N=Cc1cccc(O)c1O,22%
20,COc1ccc2c(c1OC)C(=O)O[C@@H]2[C@H]1c2cc3c(cc2CCN1C)OCO3.Cl,-39%
21,CC(C)c1ccccc1NC(=O)COC(=O)CNC(=O)c1ccc(Br)cc1,-15.8%
22,CCCn1c(N)c(N(CCOC)C(=O)c2ccc(N3CCCC3=O)cc2)c(=O)[nH]c1=O,30.6%

row,Structure (SMILES),"hERG current change (%, negative = inhibition) at 10uM"
1,CCNC(=S)NCCC1=c2ccccc2=N/C1=C\c1c(O)n(C)c(=O)n(C)c1=O,26.5%
2,C=CCNC(=O)C1CCCN(S(C)(=O)=O)C1 (stereo not drawn),13.7%
3,CCCCCCn1c(CN2CCCCC2C)nc2c1c(=O)n(C)c(=O)n2C (stereo not drawn),-60.5%
4,CCOCCn1c(N2CCN(c3ccc(OC)cc3)CC2)nc2c1c(=O)[nH]c(=O)n2C,-30.3%
5,NC(=O)CN1C(=O)C(=O)N(Cc2ccccc2Cl)C1=O,8.45%
6,CCSc1nc2ccccc2n1C(=O)c1ccc(S(=O)(=O)N2CCCCCC2)cc1,-13.4%
7,COc1ccc2oc(C(=O)OCC(=O)Nc3cccc(S(=O)(=O)N4CCOCC4)c3)c(C)c2c1,-46.9%
8,O=C(NC1=NCCS1)c1csc2ccccc12,-13.1%
9,Cc1cnc(NS(=O)(=O)c2ccccc2)c(C)n1,19.5%
10,CCCCNS(=O)(=O)NC(=O)C1=C(N2CCCC2)COC1=O,6.34%
11,Cc1c(N2C(=O)CSC2c2ccc([N+](=O)[O-])cc2)c(=O)n(-c2ccccc2)n1C (stereo not drawn),-6.57%
12,Cc1ccc2nc(-c3ccc(NC(=O)CSc4ccccc4)cc3)[nH]c2c1,14.1%
13,COc1ccc(S(=O)(=O)Nc2nc3ccccc3nc2NCC2CCCO2)cc1 (stereo not drawn),5.29%
14,CCOC(=O)Cn1c(=NC(=O)C2CC2)sc2c(C)cc(C)cc21,14.8%
15,Cc1cc(NC(=O)CSc2ccc(-c3ccc4c(c3)OCO4)nn2)no1,22.2%
16,O=C(OCC#Cc1c(COC(=O)c2ccccc2)nnn1Cc1ccccc1)c1ccccc1,5.67%
17,CC1=NN(c2ccccc2)C(=O)C1(C)[N+](=O)[O-] (stereo not drawn),11.9%
18,O=C(NC1CCc2ccccc21)c1cc(COc2cncc(Cl)c2)on1 (stereo not drawn),3.56%
19,CC(=C/c1ccc(C(C)C)cc1)/C=N/NC(=O)CSc1ccccn1,-9.64%
20,Cc1cc(C)nc(SCc2ccc(C(=O)NNC(=O)Nc3cccc(Cl)c3)cc2)n1,5.53%
21,CC1(C)Cc2c(sc(NC(=O)c3ccc(C(=O)c4ccccc4)cc3)c2C#N)C(C)(C)N1,-7.79%
22,CC(=O)Nc1cc(C(=O)O)ccc1S(=O)(=O)c1ccc(Cl)cc1,2.83%

row,Structure (SMILES),"hERG current change (%, negative = inhibition) at 10uM"
1,Cn1c(=O)[nH]c(=O)c2c1nc(N1CCOCC1)n2CC(O)COc1ccc2ccccc2c1 (stereo not drawn),-35.9%
2,COC(=O)c1cc(NS(=O)(=O)c2ccc(N3CCCCC3)c([N+](=O)[O-])c2)cc(C(=O)OC)c1,-4.94%
3,Cc1ccc(C(=O)C[n+]2ccc(Cc3ccccc3)cc2)cc1.[Cl-],-73.6%
4,CC1(C)CC(=O)C(C=NCCN2CCN(CC(=O)Nc3ccc(Cl)cc3)CC2)=C(O)C1,-36.4%
5,COc1ccc(/C=C(/C#N)c2cccnc2)cc1OC,7.23%
6,N#Cc1ccccc1S(=O)(=O)N1CCC(C(=O)NCc2ccccc2CN2CCCC2)CC1,-69.1%
7,CCOC(=O)c1ccc(N2CCN(c3ccccc3F)CC2)c(NC(=O)Nc2cccc(OC)c2)c1,-2.55%
8,Cc1ccc(C2C(C#N)=C(N)Oc3cc(C)oc(=O)c32)o1 (stereo not drawn),-1.43%
9,CN1CCN(c2ccc(Cl)cc2NS(=O)(=O)c2ccccc2Cl)CC1,-37%
10,O=C(NCCc1cccc(Cl)c1)c1cccs1,-8.38%
11,CNC(=S)N/N=C/c1ccc(-c2cccc(C(=O)O)c2)o1,-5.18%
12,CCN1CCN(c2ccc(NC(=O)c3cc(OC)c(OC)c(OC)c3)cc2)CC1.Cl,8.12%
13,C=CC[N+]1(CC#CCOC(c2ccccc2)c2ccccc2)CCOCC1.[Cl-],-0.242%
14,COc1ccc(OC)c(-c2csc(-c3cccs3)n2)c1,7.93%
15,Cc1ccc(-c2cc(C(F)F)n3ncc(C(=O)Nc4cn(C)nc4C)c3n2)cc1,4.6%
16,Cc1cc(OCC(=O)Nc2ccncc2)cc(C)c1Br,12.9%
17,CCn1c(SCC(=O)N(C)c2ccccc2)nc2c([nH]c3ccccc32)c1=O,19.4%
18,C/C(=C\c1ccccc1)C(=O)NCCCn1ccnc1,-10.1%
19,O.S=c1nc[nH]c2nc[nH]c12,-38.7%
20,COc1cccc(CN2CCN(Cc3ccon3)CC2CCO)c1 (stereo not drawn),0.227%
21,S=C1NCN(Cc2ccco2)CN1CCc1ccccc1,12.1%
